Data as given in publication PMC4336329 (PLoS ONE, 2015).
Screen size: about 310,000 compounds; about 14,000 (4.5%) showed an effect of 50% or more. The effect is printed as a negative number. The list shows a part of the results.

The compounds below were run against human ether-à-go-go-related gene (hERG) potassium channel (human, UniProt Q12809) (assay: primary screen, population patch clamp on CHO cells stably expressing hERG).
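Note: peak tail current of the secondary pulse compared with the same well before compound.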

Chain of human ether-à-go-go-related gene (hERG) potassium channel (Q12809 whole entry, looked up): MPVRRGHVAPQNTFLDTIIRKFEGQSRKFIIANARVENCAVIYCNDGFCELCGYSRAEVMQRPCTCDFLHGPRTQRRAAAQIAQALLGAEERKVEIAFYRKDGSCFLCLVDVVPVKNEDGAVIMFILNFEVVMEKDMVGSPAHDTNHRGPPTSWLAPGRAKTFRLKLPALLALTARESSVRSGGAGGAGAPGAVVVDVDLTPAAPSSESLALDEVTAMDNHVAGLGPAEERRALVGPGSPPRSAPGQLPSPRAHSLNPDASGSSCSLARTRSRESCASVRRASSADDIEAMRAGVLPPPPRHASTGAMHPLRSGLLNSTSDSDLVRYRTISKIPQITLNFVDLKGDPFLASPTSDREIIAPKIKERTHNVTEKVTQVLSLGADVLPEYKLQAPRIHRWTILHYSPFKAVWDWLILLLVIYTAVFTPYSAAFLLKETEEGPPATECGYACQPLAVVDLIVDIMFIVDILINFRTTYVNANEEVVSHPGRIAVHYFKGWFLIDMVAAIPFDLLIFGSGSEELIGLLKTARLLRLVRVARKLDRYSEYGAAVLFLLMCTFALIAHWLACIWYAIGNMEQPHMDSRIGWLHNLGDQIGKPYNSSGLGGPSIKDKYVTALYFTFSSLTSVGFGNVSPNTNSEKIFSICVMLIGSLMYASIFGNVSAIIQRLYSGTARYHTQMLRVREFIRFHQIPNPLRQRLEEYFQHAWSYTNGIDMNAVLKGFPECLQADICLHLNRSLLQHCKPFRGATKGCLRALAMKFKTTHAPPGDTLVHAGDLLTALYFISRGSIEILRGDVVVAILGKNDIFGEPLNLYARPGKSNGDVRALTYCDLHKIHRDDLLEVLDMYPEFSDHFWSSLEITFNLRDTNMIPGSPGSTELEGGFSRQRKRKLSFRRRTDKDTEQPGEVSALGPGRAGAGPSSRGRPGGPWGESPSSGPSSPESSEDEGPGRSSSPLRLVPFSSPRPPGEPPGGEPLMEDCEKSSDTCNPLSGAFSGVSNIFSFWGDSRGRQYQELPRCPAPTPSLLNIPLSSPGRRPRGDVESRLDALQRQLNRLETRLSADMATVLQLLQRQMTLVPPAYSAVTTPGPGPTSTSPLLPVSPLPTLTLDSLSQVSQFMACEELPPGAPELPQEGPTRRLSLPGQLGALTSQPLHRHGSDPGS

SMILES	hERG current change (%, negative = inhibition) at 10uM [%]
O=C(CNC(=O)C12CC3CC(CC(C3)C1)C2)OCC(=O)N1CCCCC1	-0.93
Cc1cc(NC(=O)CCN2C(=O)C3C4C=CC(C4)C3C2=O)ccc1Br (stereo not drawn)	-27.4
Clc1ccc(-c2cnc3ccccc3n2)cc1	9.07
c1ccc(CSc2ccc(-c3ccccn3)nn2)nc1	5.33
O=C(NCCCN1CCCC1=O)c1cccc(S(=O)(=O)Nc2ccc(F)cc2)c1	-24.5
C[C@@H]1O[C@@H](O[C@H]2C[C@@H](O)[C@]3(CO)[C@H]4[C@H](O)C[C@]5(C)[C@@H](C6COC(=O)C6)CC[C@]5(O)[C@@H]4CC[C@]3(O)C2)[C@H](O)[C@H](O)[C@H]1O (stereo partly drawn)	5.57
CCOc1ccc(/C=C2\SC(=S)N(CC(=O)Nc3ccccn3)C2=O)cc1	-3.47
O=C(NC1CCCCC1)NC1(C(=O)N2CCN3CCCC3C2)CCCCC1 (stereo not drawn)	3.18
O=C(O)CCCCCNCc1ccncc1	-7.88
O=C(C1=C[C@H](c2csc3ccccc23)C[C@H](OCc2ccc(CO)cc2)O1)N1CCN(Cc2ccc3c(c2)OCO3)CC1	12.4
C=C(C)n1c(=O)n(Cc2ccccc2C)c2ccccc21	-13
O=C1Nc2ccc(Br)cc2C1(O)c1ccc(F)cc1 (stereo not drawn)	7
O=[N+]([O-])c1cccc(-c2nc(Oc3ccc(Cl)cc3)c3ccccc3n2)c1	8.2
O=C(Nc1cccc(-c2ccc(N3CCOCC3)nn2)c1)c1ccccc1Cl	27
C#CCN1C(=O)C(O)(CC(=O)/C=C/c2ccco2)c2ccccc21 (stereo not drawn)	9.86
c1ccc(-c2nnc(SCc3nc4ccccc4[nH]3)n2Cc2ccco2)cc1	-22.4
CCCCNC(=O)Nc1c(C(=O)OCC)[nH]c2ccccc12	6.83
COc1cc(NC(=O)C/C(C)=N/NC(=O)c2cccc(O)c2)c(OC)cc1Cl	-8.16
Cc1ccc(-n2ncc3c2CC(C)(C)CC3NC(=O)c2cc[n+]([O-])cc2)cc1 (stereo not drawn)	-75.4
CCCN(CC1CC1)C(=O)COC(=O)c1oc2ccc(OCC)cc2c1C	-27.8
O=C(NNC(=S)Nc1ccc(F)cc1)c1cccc([N+](=O)[O-])c1	18.1

SMILES	hERG current change (%, negative = inhibition) at 10uM [%]
CCCSc1nnc(Cc2cc(=O)[nH]c(=O)[nH]2)n1-c1cc(C)ccc1C	16.5
COc1cc(C(C(=O)NC(C)(C)C)N(C(=O)CNC(=O)c2cccs2)c2ccccc2)cc(OC)c1OC (stereo not drawn)	19.4
O=C(NCC1OCCCN1S(=O)(=O)c1ccc(F)cc1)C(=O)NC1CCCC1 (stereo not drawn)	-15.8
COc1ccc(C(C)=O)cc1CN(c1ccccc1OC)S(=O)(=O)c1cccs1	7.7
CCCOc1cccc(C(=O)NCCNC(=O)c2cnccn2)c1	11.6
Cc1cccc(OCCNc2ccc(C(F)(F)F)cc2[N+](=O)[O-])c1	15.4
Cc1nnc(SCc2ccc([N+](=O)[O-])cc2)o1	-12.9
Cc1cc(C)nc(SCc2cnc(C)nc2N)n1	21.6
COc1ccc(OC)c(NC(=O)c2ccc(N3C(=O)C4CC=C(C)CC4C3=O)cc2)c1 (stereo not drawn)	3.31
C=CCN(c1ccc(C(=O)Nc2cc(C)cc(C)c2)cc1)S(C)(=O)=O	-12.7
Cc1c(NC(=O)COc2ccc3ccc(=O)oc3c2)c(=O)n(-c2ccccc2)n1C	-4.19
C1COCCO1.COc1ccc(NS(=O)(=O)c2ccc(N3CCOCC3)c(NC(=O)c3ccccc3Cl)c2)cc1	9.22
Cc1cc(N)n(-c2ccc(S(=O)(=O)c3ccc(C(C)C)cc3)cc2)n1	4.09
CCCC1(C(=O)OCC)NC(c2ccc(O)cc2)C2C(=O)N(c3cccc(C(C)=O)c3)C(=O)C21 (stereo not drawn)	11.2
O=C(CN1C(=O)c2ccccc2C1=O)Nc1nnc(C2CCCO2)s1 (stereo not drawn)	16.9
CC(=O)CSc1nnc(C(F)(F)F)n1C	14.4
COc1ccc(NC(=O)c2ccccc2NC(=O)c2ccco2)c(OC)c1	-73.4
COc1ccc(CN2CCCC(CO)(Cc3ccc(F)cc3F)C2)cc1 (stereo not drawn)	6.12
O=C(c1cccc(C(=O)N2CCN(Cc3ccccc3)CC2)c1)N1CCN(Cc2ccccc2)CC1	-17.2
CCC1NC(C(=O)O)Cc2c1[nH]c1ccccc21 (stereo not drawn)	4.66
Cc1ccc(-c2n[nH]c(=S)c3ccccc23)cc1	-2.04

SMILES	hERG current change (%, negative = inhibition) at 10uM [%]
CC12CCC(=O)N1C(C(=O)Nc1nc3ccc(Cl)cc3s1)CS2 (stereo not drawn)	-42.3
CC1N(O)C2CCCCCC2N1O (stereo not drawn)	17.6
CCC1=NN(C(=O)Cc2ccc([N+](=O)[O-])cc2)C(O)(C(F)(F)F)C1 (stereo not drawn)	-13.3
Cc1ccccc1CN1C2=NCCN2c2ccccc21.Cl	-53.7
COc1cc(/C=C(/C#N)C(=O)Nc2ccccc2)c(Br)cc1OCc1ccc(C(=O)O)cc1	9.98
CCOc1ccc(C(=O)NCC(=O)OCC(=O)Nc2nnc(-c3ccccc3)o2)cc1	-9.51
COc1ccccc1Oc1ccnc2cc(Cl)ccc12	-8.96
COc1ccc(NC(=O)Nc2ccc(F)c(F)c2)c(OC)c1	23.4
CC1=C(C(=O)Nc2cc(C(=O)N3CCC(C)CC3)ccc2C)SCCO1	9.92
COc1ccc(NS(=O)(=O)c2cccc(C(=O)OCC(=O)N3CCN(c4ccc(OC)cc4)CC3)c2)cc1	-10.1
COc1ccccc1CNC(=O)c1cccs1	3.82
Cc1ccc(CCC(=O)Nc2ccc([N+](=O)[O-])cc2Cl)o1	-4.02
Cc1ccc(NC(=O)CCC(=O)N/N=C/c2ccc(O)cc2)cc1	17.3
Cc1csc2ncc(C(=O)Nc3ccon3)c(=O)n12	7.44
COC(=O)CNc1nc(Cl)nc(Nc2ccc(C)cc2)n1	18.3
COc1ccc(CC2(C)OC(c3ccc(Cl)cc3)=NN2C(C)=O)cc1 (stereo not drawn)	-1.94
CCc1nccn1CCC(=O)NC1CC(C)(C)Cc2c1cnn2-c1ccc(OC)cc1 (stereo not drawn)	-16.2
COc1cc(CNc2ncc(-c3ccc(Br)cc3)n2C)cc(OC)c1OC.O=C(O)C(=O)O	-49.9
COCC(=O)N(CCc1ccc(OC)cc1)Cc1nc2ccccc2c(=O)[nH]1	-2.83
COc1ccc2nc(SCC(=O)C(C)(C)C)[nH]c2c1	-0.0981
CC(Sc1nnnn1-c1ccc(O)cc1)c1nc2ccccc2c(=O)[nH]1 (stereo not drawn)	-13.4

SMILES	hERG current change (%, negative = inhibition) at 10uM [%]
Cc1cc(/C=N/n2cnnc2)c(C)n1-c1ccc(C(=O)O)cc1	-1.93
Cc1cc(OCC(=O)Nc2ccc(N3CCN(C(=O)c4ccco4)CC3)cc2)cc(C)c1Cl	2.99
COc1cc(OC)c(C(=O)OCC(=O)Nc2ccccc2Cl)cc1OC	14.3
CSc1nsc(/C=C/Nc2ccc(F)cc2F)c1C#N	9.53
O=C(/C=C/c1ccccc1)NC(NC(=S)Nc1cc(Cl)ccc1Cl)C(Cl)(Cl)Cl (stereo not drawn)	15.1
O=C(c1cc(-c2ccncc2)nc2c(Cl)cccc12)N1CCN(c2ccccc2F)CC1	-46.3
COc1ccc(C(=O)COC(=O)CCC(=O)c2cccs2)cc1	-34.4
N#CC1=C(N)OC2=C(C(=O)CCC2)C1Cc1ccccc1 (stereo not drawn)	0.947
COc1ccc2nc(C)cc(SCC(=O)NNC(=O)COc3ccc(C)cc3)c2c1	16.2
O=C1c2cccnc2C(O)N1Cc1cccs1 (stereo not drawn)	-4.79
Cc1cc(C)cc(N(C(=O)Cn2nnc3ccccc32)C(C(=O)NCc2ccco2)c2ccncc2)c1 (stereo not drawn)	-6.94
O=C(CSc1ncn[nH]1)Nc1nc(-c2cccc([N+](=O)[O-])c2)cs1	-13.8
C/C(=N\N1CCN(Cc2ccc(Cl)cc2)CC1)c1ccc([N+](=O)[O-])cc1	-72.6
CCCN1C(=O)SC(CC(=O)Nc2ccc(Br)cc2)C1=O (stereo not drawn)	2.86
O=C(CN(C(=O)c1csnn1)c1ccccc1F)NCc1ccccc1	-2.58
CC(=O)Nc1ccc(S(=O)(=O)N2CCC3(CC2)CC(=O)c2ccccc2O3)cc1	-36.6
COc1ccc(OCCN(C)C(=O)c2cccc(S(=O)(=O)N(C)c3ccccc3)c2)cc1	-48.5
COc1ccccc1CNC(=O)C(CCSC)NC(=O)C1CCC(C)CC1 (stereo not drawn)	3.2
COc1ccccc1OCC(=O)NNC(=O)c1cccs1	19.8
Cc1cccc(N(C(=O)c2snc(C(N)=O)c2N)C(C(=O)NCc2ccccc2)c2ccncc2)c1 (stereo not drawn)	12
Cc1ccccc1NC(=O)c1cc([N+](=O)[O-])ccc1NCCN1C(=O)CCC1=O	-4.71
